“And” between values parts separate entries of the source, which are not always exact repeats. Identical values can stand only once. The shares of active, inactive and inconclusive entries below differ from those in the screen. For some of these results: Potencies of inconclusive entries are doubtful fits and often do not repeat. Some compounds were tested as several samples or in several runs, with calls that do not always agree. The source made the active and inactive calls. The calls were made as follows: active = hit-call score of the fitted dose curve at least 0.9, where 1 is the maximum; inconclusive = response in the unintended direction; inactive = score below 0.9.
Tests used:
[1] = target: GAL4 Transcription Factor (Internal Marker), GAL4 (gene 855828) (UniProt P04386); assay: ATG_GAL4_XSP1: Attagene TRANS-FACTORIAL Multi-Species (XSP1) HepG2 Assay for GAL4 Transcription Factor (Internal Marker) (AID 2283789)
In short: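 HepG2 cells transiently transfected with multiplexed GAL4-UAS reporter units were exposed for 24 h with 3 nM 6-alpha-fluorotestosterone present. Reporter mRNA was quantified by RT-PCR, FAM labelling, HpaI digestion and capillary electrophoresis; background-control readout, gain-of-signal versus DMSO.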

[2] = system: zebrafish Peroxisome Proliferator-activated Receptor gamma (PPARg), gene 557037; assay: ATG_zfPPARg_XSP1: Attagene TRANS-FACTORIAL Multi-Species (XSP1) HepG2 Assay for zebrafish Peroxisome Proliferator-activated Receptor gamma (PPARg) (AID 2283801)
In short: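 HepG2 cells transiently transfected with GAL4-UAS reporter units including a zebrafish PPARg–GAL4 chimera, dosed 24 h with 3 nM 6-alpha-fluorotestosterone present. Reporter mRNA quantified by RT-PCR, FAM labelling, HpaI digestion and capillary electrophoresis; induction versus DMSO.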

[3] = target: frog Thyroid hormone Receptor alpha (TRa), thra-a (gene 397942) (UniProt P15204); assay: ATG_frTRa_XSP1: Attagene TRANS-FACTORIAL Multi-Species (XSP1) HepG2 Assay for frog Thyroid hormone Receptor alpha (TRa) (AID 2283804)
In short: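 HepG2 cells transiently transfected with frog TRa-GAL4 chimeric reporter units, dosed 24 hr with 3 nM 6-alpha-fluorotestosterone present; reporter mRNA quantified by RT-PCR, fluorescent labelling and capillary electrophoresis, gain of signal versus DMSO.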

[4] = target: GAL4 Transcription Factor (Internal Marker), GAL4 (gene 855828) (UniProt P04386); assay: ATG_GAL4_XSP2: Attagene TRANS-FACTORIAL Multi-Species (XSP2) HepG2 Assay for GAL4 Transcription Factor (Internal Marker) (AID 2283814);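 also: GAL4 reporter mRNA background control in MRTU transfected cells not a receptor target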
In short: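 HepG2 cells transiently transfected with GAL4-UAS reporter units, stimulated with 3 nM 6-alpha-fluorotestosterone plus 1.5 nM norgestrel, dosed 24 h. Reporter mRNA by RT-PCR/capillary electrophoresis; gain-of-signal fit versus DMSO, background control.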

[5] = system: turtle Androgen Receptor (AR), gene 101947425; assay: ATG_trAR_XSP2: Attagene TRANS-FACTORIAL Multi-Species (XSP2) HepG2 Assay for turtle Androgen Receptor (AR) (AID 2283815);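 as to AC50: reporter mRNA from a Gal4 chimera of turtle AR measured by RT-PCR; potency for gain of reporter signal meaning activation above DMSO baseline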
In short: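 HepG2 cells transiently transfected with GAL4-UAS reporter units for chimeric NR-Gal4 receptors; 24 h dosing in presence of 3 nM 6-alpha-fluorotestosterone and 1.5 nM norgestrel. Reporter mRNA by RT-PCR and capillary electrophoresis, gain of signal versus DMSO.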

[6] = ATG_M_32_XSP1: Attagene TRANS-FACTORIAL Multi-Species (XSP1) HepG2 Assay for M32 Transcription Factor (Internal Marker) (AID 2283799)
In short: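 HepG2 cells transiently transfected with multi-species TRANS reporter units, dosed 24 h with 3 nM 6-alpha-fluorotestosterone present. Internal-marker reporter mRNA quantified by RT-PCR and capillary electrophoresis; positive-direction fit versus DMSO.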

[7] = target: Peroxisome proliferator-activated receptor gamma (Homo sapiens) (UniProt P37231); assay: ATG_hPPARg_XSP1: Attagene TRANS-FACTORIAL Multi-Species (XSP1) HepG2 Assay for human Peroxisome Proliferator-activated Receptor gamma (PPARg) (AID 2283800)
In short: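 HepG2 cells transiently transfected with GAL4-UAS reporter units carrying chimeric NR-Gal4 proteins; 3 nM 6-alpha-fluorotestosterone present. After 24 h dosing, reporter mRNA quantified by RT-PCR and capillary electrophoresis; gain of signal relative to DMSO.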

[8] = ATG_M_06_XSP1: Attagene TRANS-FACTORIAL Multi-Species (XSP1) HepG2 Assay for M06 Transcription Factor (Internal Marker) (AID 2283790)
In short: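 Transfected HepG2 multi-reporter system treated 24 h in the presence of 3 nM 6-alpha-fluorotestosterone. The M06 internal marker transcript was quantified by RT-PCR with capillary electrophoresis as a background control, and gain of signal was scored versus DMSO.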

[9] = target: human Thyroid hormone Receptor beta (TRb), THRB (gene 7068) (UniProt P10828); assay: ATG_hTRb_XSP1: Attagene TRANS-FACTORIAL Multi-Species (XSP1) HepG2 Assay for human Thyroid hormone Receptor beta (TRb) (AID 2283808)
In short: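 HepG2 cells transiently transfected with reporter units driving GAL4-UAS reporters for chimeric NR-Gal4 proteins; 24 h chemical exposure with 3 nM 6-alpha-fluorotestosterone present. Reporter mRNA quantified by RT-PCR and capillary electrophoresis, gain of signal versus DMSO.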

[10] = ATG_M_61_XSP1: Attagene TRANS-FACTORIAL Multi-Species (XSP1) HepG2 Assay for M61 Transcription Factor (Internal Marker) (AID 2283797)
In short: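 HepG2 cells transiently transfected with multiplexed GAL4-driven reporter units, dosed 24 h with 3 nM 6-alpha-fluorotestosterone present. Reporter mRNA quantified by RT-PCR, 6-FAM labelling, HpaI digestion and capillary electrophoresis; internal-marker background control, gain of signal versus DMSO.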

[11] = target: zebrafish Thyroid Hormone Receptor alpha (TRa), thraa (gene 30670) (UniProt Q98867); assay: ATG_zfTRa_XSP1: Attagene TRANS-FACTORIAL Multi-Species (XSP1) HepG2 Assay for zebrafish Thyroid Hormone Receptor alpha (TRa) (AID 2283807)
In short: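 HepG2 cells transiently transfected with GAL4-UAS reporter units including a zebrafish TRa–Gal4 chimera, dosed 24 h with 3 nM 6-alpha-fluorotestosterone present. Reporter mRNA quantified by RT-PCR and capillary electrophoresis; gain versus DMSO.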

[12] = ATG_M_06_XSP2: Attagene TRANS-FACTORIAL Multi-Species (XSP2) HepG2 Assay for M06 Transcription Factor (Internal Marker) (AID 2283811);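 also: hits are increases in signal above the DMSO baseline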
In short: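 HepG2 cells transiently transfected with GAL4-UAS multi-reporter constructs, dosed 24 h with 3 nM 6-alpha-fluorotestosterone plus 1.5 nM norgestrel present to stimulate androgen receptor. Reporter mRNA quantified by RT-PCR, 6-FAM labelling, HpaI digestion and capillary electrophoresis; gain-of-signal fitted versus DMSO baseline.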

[13] = target: zebrafish Estrogen Receptor (ER1), esr1 (gene 259252) (UniProt P57717); assay: ATG_zfER1_XSP2: Attagene TRANS-FACTORIAL Multi-Species (XSP2) HepG2 Assay for zebrafish Estrogen Receptor (ER1) (AID 2283816)
In short: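 HepG2 cells transiently transfected with a GAL4-UAS reporter and a chimeric zebrafish ER1-Gal4 construct, dosed 24 h. Reporter mRNA quantified by RT-PCR, labelling, HpaI digestion and capillary electrophoresis, relative to DMSO.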

[14] = system: turtle Thyroid Hormone Receptor, alpha (TRa), gene 101949057; assay: ATG_trTRa_XSP1: Attagene TRANS-FACTORIAL Multi-Species (XSP1) HepG2 Assay for turtle Thyroid Hormone Receptor, alpha (TRa) (AID 2283806)
In short: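 HepG2 cells transiently transfected with GAL4-UAS reporter units and chimeric receptor-Gal4 constructs, with 3 nM 6-alpha-fluorotestosterone present. Reporter mRNA was quantified 24 h after dosing by RT-PCR, 6-FAM labelling and capillary electrophoresis; gain of signal versus DMSO.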

[15] = target: Estrogen receptor beta (Homo sapiens) (UniProt Q92731); assay: ATG_hERb_XSP2: Attagene TRANS-FACTORIAL Multi-Species (XSP2) HepG2 Assay for human Estrogen Receptor (ERb) (AID 2283813);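 also: actives raise reporter mRNA above DMSO so AC50 reflects agonist induction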
In short: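 HepG2 cells transiently transfected with GAL4-UAS reporter units and chimeric human ERb-Gal4, 24 h exposure. Reporter mRNA quantified by RT-PCR with FAM labelling, HpaI digestion and capillary electrophoresis; gain of signal versus DMSO.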

Sequence of UniProt P37231 (P37231 whole entry, looked up, the tested form may be a part): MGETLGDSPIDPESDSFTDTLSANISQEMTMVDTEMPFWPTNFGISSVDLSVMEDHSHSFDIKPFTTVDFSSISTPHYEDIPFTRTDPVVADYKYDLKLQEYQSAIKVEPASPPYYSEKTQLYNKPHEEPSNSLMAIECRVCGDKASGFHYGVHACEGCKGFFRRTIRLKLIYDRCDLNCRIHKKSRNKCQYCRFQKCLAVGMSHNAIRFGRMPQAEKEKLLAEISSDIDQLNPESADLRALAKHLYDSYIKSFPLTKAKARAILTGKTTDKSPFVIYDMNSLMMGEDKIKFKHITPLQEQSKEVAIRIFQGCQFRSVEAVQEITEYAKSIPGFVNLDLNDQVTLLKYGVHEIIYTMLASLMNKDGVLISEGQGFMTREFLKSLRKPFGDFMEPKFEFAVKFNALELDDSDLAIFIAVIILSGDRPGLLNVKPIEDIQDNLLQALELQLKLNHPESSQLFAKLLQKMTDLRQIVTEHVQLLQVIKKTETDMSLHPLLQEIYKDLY
Sequence of UniProt P10828 (P10828 whole entry, looked up, the tested form may be a part): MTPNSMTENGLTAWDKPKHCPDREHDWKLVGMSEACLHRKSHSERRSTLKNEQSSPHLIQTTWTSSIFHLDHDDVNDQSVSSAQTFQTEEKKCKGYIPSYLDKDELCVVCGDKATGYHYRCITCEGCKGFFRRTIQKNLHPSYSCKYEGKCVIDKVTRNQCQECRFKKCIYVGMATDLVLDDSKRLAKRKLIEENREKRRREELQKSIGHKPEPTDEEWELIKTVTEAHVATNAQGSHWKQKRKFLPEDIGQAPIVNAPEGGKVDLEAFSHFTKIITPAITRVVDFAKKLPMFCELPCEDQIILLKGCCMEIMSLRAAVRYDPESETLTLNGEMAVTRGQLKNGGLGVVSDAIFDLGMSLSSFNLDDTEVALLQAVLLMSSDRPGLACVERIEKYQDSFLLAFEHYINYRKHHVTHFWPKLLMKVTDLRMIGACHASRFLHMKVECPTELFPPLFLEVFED
Sequence of UniProt P57717 (P57717 whole entry, looked up, the tested form may be a part): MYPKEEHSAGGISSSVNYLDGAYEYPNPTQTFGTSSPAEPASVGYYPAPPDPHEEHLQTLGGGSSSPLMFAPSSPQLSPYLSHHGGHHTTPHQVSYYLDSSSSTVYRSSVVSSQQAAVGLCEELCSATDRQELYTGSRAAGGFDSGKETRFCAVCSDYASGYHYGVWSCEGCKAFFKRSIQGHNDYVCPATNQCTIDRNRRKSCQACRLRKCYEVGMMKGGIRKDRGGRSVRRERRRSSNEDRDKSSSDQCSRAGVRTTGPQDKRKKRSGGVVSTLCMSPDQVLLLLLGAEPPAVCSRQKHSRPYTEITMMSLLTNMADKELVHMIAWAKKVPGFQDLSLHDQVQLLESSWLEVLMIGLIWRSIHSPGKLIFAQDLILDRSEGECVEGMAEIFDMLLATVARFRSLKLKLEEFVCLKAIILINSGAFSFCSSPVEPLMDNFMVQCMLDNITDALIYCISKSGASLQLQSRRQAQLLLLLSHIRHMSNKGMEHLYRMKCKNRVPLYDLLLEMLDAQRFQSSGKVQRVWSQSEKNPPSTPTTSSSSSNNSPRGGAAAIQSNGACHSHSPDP
Sequence of UniProt P04386 (P04386 whole entry, looked up, the tested form may be a part): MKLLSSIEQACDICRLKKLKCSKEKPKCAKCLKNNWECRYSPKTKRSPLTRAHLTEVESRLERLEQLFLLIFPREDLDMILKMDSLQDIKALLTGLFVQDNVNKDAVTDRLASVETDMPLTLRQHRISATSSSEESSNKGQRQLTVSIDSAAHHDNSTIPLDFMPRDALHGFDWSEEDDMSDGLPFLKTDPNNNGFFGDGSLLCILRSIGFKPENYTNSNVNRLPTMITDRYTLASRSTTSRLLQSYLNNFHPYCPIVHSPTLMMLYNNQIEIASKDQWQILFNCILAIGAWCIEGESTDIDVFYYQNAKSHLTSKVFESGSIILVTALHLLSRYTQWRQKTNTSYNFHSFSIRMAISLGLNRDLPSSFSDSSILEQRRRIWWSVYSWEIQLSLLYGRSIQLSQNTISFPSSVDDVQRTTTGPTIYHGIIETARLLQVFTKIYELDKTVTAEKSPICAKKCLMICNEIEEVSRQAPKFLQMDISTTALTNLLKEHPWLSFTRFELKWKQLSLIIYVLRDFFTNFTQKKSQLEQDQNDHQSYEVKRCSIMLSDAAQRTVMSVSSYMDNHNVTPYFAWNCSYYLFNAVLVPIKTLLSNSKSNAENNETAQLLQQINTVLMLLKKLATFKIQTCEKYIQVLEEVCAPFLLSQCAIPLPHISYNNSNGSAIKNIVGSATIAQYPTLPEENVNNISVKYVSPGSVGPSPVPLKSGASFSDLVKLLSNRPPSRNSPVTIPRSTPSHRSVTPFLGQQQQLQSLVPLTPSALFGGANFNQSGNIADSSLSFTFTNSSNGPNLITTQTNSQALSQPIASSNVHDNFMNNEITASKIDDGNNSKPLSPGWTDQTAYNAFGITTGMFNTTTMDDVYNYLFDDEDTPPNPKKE
Sequence of UniProt P15204 (P15204 whole entry, looked up, the tested form may be a part): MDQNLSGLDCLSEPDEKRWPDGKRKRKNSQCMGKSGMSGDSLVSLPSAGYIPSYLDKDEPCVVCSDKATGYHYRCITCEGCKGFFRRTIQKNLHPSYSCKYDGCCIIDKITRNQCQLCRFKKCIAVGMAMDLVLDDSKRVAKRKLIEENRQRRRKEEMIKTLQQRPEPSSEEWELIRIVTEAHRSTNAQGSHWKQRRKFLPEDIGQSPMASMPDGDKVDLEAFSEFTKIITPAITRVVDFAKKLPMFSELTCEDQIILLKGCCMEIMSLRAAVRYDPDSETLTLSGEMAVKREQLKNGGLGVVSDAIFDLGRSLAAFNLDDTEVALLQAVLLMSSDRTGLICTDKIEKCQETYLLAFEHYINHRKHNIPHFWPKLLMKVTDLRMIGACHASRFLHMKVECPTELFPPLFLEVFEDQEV
Sequence of UniProt Q92731 (Q92731 whole entry, looked up, the tested form may be a part): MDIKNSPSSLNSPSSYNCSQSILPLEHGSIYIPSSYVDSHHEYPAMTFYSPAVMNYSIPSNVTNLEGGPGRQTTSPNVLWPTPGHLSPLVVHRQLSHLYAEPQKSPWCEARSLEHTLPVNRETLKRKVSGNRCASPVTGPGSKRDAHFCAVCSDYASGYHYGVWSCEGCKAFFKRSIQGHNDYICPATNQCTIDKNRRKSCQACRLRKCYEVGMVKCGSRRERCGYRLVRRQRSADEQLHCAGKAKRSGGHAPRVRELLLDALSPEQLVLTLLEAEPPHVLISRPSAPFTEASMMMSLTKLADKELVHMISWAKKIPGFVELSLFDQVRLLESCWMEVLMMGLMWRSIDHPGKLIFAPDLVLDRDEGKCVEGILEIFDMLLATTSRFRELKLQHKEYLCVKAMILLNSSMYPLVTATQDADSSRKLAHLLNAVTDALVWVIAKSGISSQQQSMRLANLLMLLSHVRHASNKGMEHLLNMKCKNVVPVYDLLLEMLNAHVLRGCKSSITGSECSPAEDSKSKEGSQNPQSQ
Sequence of UniProt Q98867 (Q98867 whole entry, looked up, the tested form may be a part): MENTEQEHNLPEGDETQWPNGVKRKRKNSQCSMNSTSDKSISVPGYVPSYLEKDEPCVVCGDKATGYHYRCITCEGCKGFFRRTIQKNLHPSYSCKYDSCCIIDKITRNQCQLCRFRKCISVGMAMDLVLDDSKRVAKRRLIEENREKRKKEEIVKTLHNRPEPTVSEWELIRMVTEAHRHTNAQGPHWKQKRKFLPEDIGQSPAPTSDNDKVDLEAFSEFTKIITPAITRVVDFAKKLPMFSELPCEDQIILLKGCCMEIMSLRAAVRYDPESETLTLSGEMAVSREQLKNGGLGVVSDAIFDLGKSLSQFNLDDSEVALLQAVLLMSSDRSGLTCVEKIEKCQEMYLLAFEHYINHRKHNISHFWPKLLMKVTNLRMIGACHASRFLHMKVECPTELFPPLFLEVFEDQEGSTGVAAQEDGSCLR

In the case of `CC1(C)CCC(Cc2ccc(Cl)cc2)C1(O)Cn1cncn1` (stereo not drawn), the AC50 [1] is reported as inconclusive: 23.8 µM, the outcome [2] is reported as “inactive” and the AC50 [3] is reported as inconclusive: 0.00913 µM. The outcome [4] was “inactive” and the AC50 [5] was inconclusive: 27.4 µM.
In the case of `COP(=S)(OC)Oc1ccc(SC)c(C)c1`, the outcome [1] is reported as “inactive”, the outcome [6] is reported as “inactive” and the AC50 [7] is reported as active: 22.5 µM. The outcome [2] was “inactive”, the AC50 [3] was inconclusive: 179 µM and the AC50 [5] was inconclusive: 19.8 µM.
For `CC(C)Oc1cc(-n2nc(C(C)(C)C)oc2=O)c(Cl)cc1Cl`, the outcome [1] was “inactive”, the outcome [8] was “inactive” and the AC50 [6] was inconclusive: 0.828 µM. For the same molecule, the AC50 [7] was active: 12.7 µM, the AC50 [3] was active: 61.6 µM and the AC50 [9] was inconclusive: 24.1 µM. For the same molecule, the AC50 [5] was inconclusive: 176 µM.
With `CCC[CH2][Sn]([Cl])([CH2]CCC)[CH2]CCC` the AC50 [1] was inconclusive: 0.14 µM, the AC50 [8] was inconclusive: 0.334 µM and the AC50 [10] was inconclusive: 0.334 µM. For the same molecule, the AC50 [6] was inconclusive: 0.334 µM, the outcome [3] was “inactive” and the AC50 [11] was active: 0.228 µM. The AC50 [9] was active: 0.159 µM, the AC50 [4] was inconclusive: 0.255 µM and the AC50 [5] was inconclusive: 1 µM.
For `Oc1ccc2ccc3cccc4ccc1c2c34`, the AC50 [4] was inconclusive: 33.4 µM and the AC50 [5] was inconclusive: 33.4 µM and inconclusive: 11.1 µM.
In the case of `Nc1c(Cl)cc([N+](=O)[O-])cc1Cl`, the AC50 [12] is reported as inconclusive: 100 µM, the AC50 [5] is reported as inconclusive: 27.8 µM and inconclusive: 8.52 µM and the AC50 [13] is reported as inconclusive: 100 µM.
In the case of `c1ccc2c(c1)-c1cccc3cccc-2c13`, the outcome [4] is reported as “inactive” and the AC50 [5] is reported as inconclusive: 7.24 µM and inconclusive: 5.68 µM.
In the case of `O=c1oc2ccccc2c(O)c1C(CC(O)c1ccc(-c2ccc(Br)cc2)cc1)c1ccccc1` (stereo not drawn), the AC50 [12] is reported as inconclusive: 31.6 µM, the AC50 [4] is reported as inconclusive: 31.6 µM and the AC50 [5] is reported as inconclusive: 40.9 µM.
For `Clc1ccc(C(c2ccc(Cl)cc2)C(Cl)Cl)cc1`, the AC50 [8] was inconclusive: 33.4 µM, the AC50 [10] was inconclusive: 33.4 µM and the AC50 [7] was inconclusive: 53.4 µM. For the same molecule, the outcome [2] was “inactive”, the AC50 [3] was inconclusive: 33.4 µM and the AC50 [14] was inconclusive: 33.4 µM. The AC50 [9] was inconclusive: 33.4 µM, the AC50 [5] was inconclusive: 23.6 µM and the outcome [13] was “inactive”.
For `Oc1ccc(-c2ccccc2)cc1`, the AC50 [4] was inconclusive: 100 µM and the AC50 [5] was inconclusive: 6.16 µM and inconclusive: 2.49 µM.
In the case of `CC(c1ccc(O)cc1)(c1ccc(O)cc1)c1ccc(O)cc1`, the AC50 [4] is reported as inconclusive: 1 µM and the outcome [5] is reported as “inactive”.
For `CCC(C)(C)c1ccc(O)cc1`, the AC50 [12] was inconclusive: 180 µM, the outcome [4] was “inactive” and the AC50 [5] was inconclusive: 100 µM and inconclusive: 75.7 µM.
For `CC(C)(C)C(O)/C(=C\c1ccc(Cl)cc1Cl)n1cncn1` (stereo not drawn), the AC50 [15] was active: 8.38 µM, the outcome [15] was “inactive” and the AC50 [4] was inconclusive: 33.4 µM. The AC50 [5] was inconclusive: 6.62 µM and inconclusive: 16.4 µM and the AC50 [13] was inconclusive: 33.4 µM.

— PubChem BioAssay (EPA / NIEHS)
